Data: the supplement of paper PMC4166925
± gives the standard deviation of the averaged measurements. Over roughly 33,000 sequences, “E-score (dimensionless, -0.5 to 0.5)” has its median near -0.049; the highest 2% begin near 0.37. This is one part of the list.

Tested on: T1, PmTbr T-box DNA-binding domain (GST fusion)
T1 sequence: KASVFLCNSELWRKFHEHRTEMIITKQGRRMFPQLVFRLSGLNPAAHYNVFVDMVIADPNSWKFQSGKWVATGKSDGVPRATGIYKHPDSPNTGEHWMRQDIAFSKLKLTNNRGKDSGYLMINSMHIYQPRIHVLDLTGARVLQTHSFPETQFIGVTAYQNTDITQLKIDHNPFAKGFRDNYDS
Assay: PBM E-score of 8-mer (E-score (dimensionless, -0.5 to 0.5)); Tbr is Tbrain of the sea star Patiria miniata (Pm) or the sea urchin Strongylocentrotus purpuratus (Sp); higher = stronger binding preference; most listed sequences are background and not binding sites
Conditions: the construct has about 5 more residues each side
Experimental: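 Universal protein-binding microarray (Agilent AMADID 016060, 60-bp probes with a 35-bp variable region) incubated with 200 nM GST-fused Patiria miniata Tbr T-box DNA-binding domain (residues 272-466) in PBS pH 7.5. Scored for every ungapped 8-mer (given with its reverse complement) by the Universal PBM Analysis Suite as E-score (modified Wilcoxon-Mann-Whitney enrichment, range -0.5 to 0.5; >0.45 counts as bound) and Z-score of median probe intensity. Two replicate arrays (datasets 1 and 2).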

Sequence | PBM E-score of 8-mer
AGTAACAG | 0.037 ± 0.085
CGCTCATA | -0.08565 ± 0.00083
AGATACCC | -0.222 ± 0.034
AAGCCCGG | -0.201 ± 0.055
AAACCCTA | -0.0441 ± 0.018
CAGACCCC | -0.263 ± 0.04
ACCTCTGG | 0.0994 ± 0.077
ACAAATCA | 0.0922 ± 0.014
AGAGATGG | -0.145 ± 0.0083
GTGATAAC | 0.406 ± 0.02
TAGAGAGA | -0.136 ± 0.021
CCCCAGGG | 0.00916 ± 0.067
GGATCACA | 0.144 ± 0.042
GCGTCGCC | 0.203 ± 0.033
CAATTGCC | 0.0195 ± 0.0026
CACCGCCA | 0.212 ± 0.066
CTCCAACC | -0.114 ± 0.032
ATGCCCAC | -0.186 ± 0.051
CGGTTCTA | -0.0969 ± 0.012
CCAGGGAA | -0.178 ± 0.0092
GTGTCACA | 0.445 ± 0.0066
ACGTTACC | 0.087 ± 0.0036

Sequence | PBM E-score of 8-mer
TGGGTTAA | -0.0374 ± 0.029
CGATGGGA | -0.227 ± 0.027
ACACCTGG | 0.466 ± 0.0053
GAAGGTCC | -0.1794 ± 0.0013
ATGGTTCG | 0.0805 ± 0.036
GGTCAATA | -0.248 ± 0.017
ACGTACAG | 0.0624 ± 0.034
ACGACGCG | 0.0983 ± 0.016
GCAGCAGC | -0.12 ± 0.037
GCACATCA | 0.167 ± 0.025
TAGACTAA | -0.192 ± 0.036
AGGAGATG | -0.0689 ± 0.011
CACTGTGG | -0.16 ± 0.098
GGGCCAAA | -0.228 ± 0.029
CGTTGATA | -0.00624 ± 0.082
GTTCCAGA | -0.137 ± 0.04
ATTCAATC | -0.115 ± 0.015
CCGGAAGA | 0.0589 ± 0.037
AGTAAGGC | -0.0738 ± 0.026
GAGTTGGC | 0.144 ± 0.048
CCCCAATA | -0.143 ± 0.0024
AAACCATC | -0.0959 ± 0.018

Sequence | PBM E-score of 8-mer
AACCGACG | -0.0139 ± 0.077
AGTTCTAA | -0.122 ± 0.041
AGTGACTC | -0.0798 ± 0.00094
ACCACGCA | -0.0762 ± 0.045
CATACGCC | -0.101 ± 0.066
CTAGTGTC | 0.239 ± 0.028
AATTAATT | 0.114 ± 0.023
AGGACGTG | 0.188 ± 0.013
GTTCTCGA | 0.0595 ± 0.038
AGGCCCCC | -0.332 ± 0.014
GTTCGATA | -0.172 ± 0.02
TAAGTCGA | 0.072 ± 0.01
ATCCGGGC | -0.232 ± 0.081
AATCCCCG | 0.00787 ± 0.01
AAAGGTCC | 0.011 ± 0.046
AGAGAGTG | 0.181 ± 0.014
ACCTTGGA | 0.163 ± 0.014
CTGGATAA | -0.277 ± 0.12
GCTTTTTA | 0.0226 ± 0.011
ACTTATGA | -0.0342 ± 0.025
ACGTGAGA | 0.349 ± 0.0086
ACCTCCAG | 0.045 ± 0.12

Sequence | PBM E-score of 8-mer
CGACAGGC | 0.147 ± 0.021
ACGGGTAG | -0.0399 ± 0.058
ATGTACGA | -0.16 ± 0.11
CAGGAACG | 0.0653 ± 0.082
AAAAGCGT | 0.158 ± 0.03
AAGCTATC | -0.0115 ± 0.049
GCCATGAC | -0.174 ± 0.022
GTAATTCA | -0.105 ± 0.0081
CTGAGAGA | -0.0217 ± 0.023
ATCAGTGC | 0.0179 ± 0.007
GTAACCGA | -0.0185 ± 0.015
ATGAAGTG | 0.257 ± 0.023
CATCTTGC | 0.0758 ± 0.065
ACCGCAAT | -0.163 ± 0.02
CCACAGCA | -0.0937 ± 0.059
AGCGTAAA | -0.209 ± 0.049
CAAAAATC | 0.0131 ± 0.062
ATGCTAAA | -0.00788 ± 0.027
AACACGCG | 0.231 ± 0.01
AAAATTTG | -0.166 ± 0.14
GGTGCGTA | 0.2616 ± 0.00075
ATGGTGTA | 0.104 ± 0.021

Sequence | PBM E-score of 8-mer
GGAGCACA | -0.215 ± 0.046
AGCGCTCC | -0.215 ± 0.0042
GCGGATCA | 0.0406 ± 0.016
TCTCACCA | 0.372 ± 0.011
CATATGCC | -0.0326 ± 0.037
ATTTGCCA | 0.127 ± 0.041
AGATAACT | 0.0753 ± 0.022
AAGGGCCC | -0.255 ± 0.033
ATCACGCG | 0.334 ± 0.023
AAAAGGTG | 0.442 ± 0.012
ATACTAGG | -0.155 ± 0.056
GATGATAA | 0.0128 ± 0.072
ATTCAAGG | -0.256 ± 0.037
AACTGAGA | 0.067 ± 0.014
CACAAGCA | -0.0188 ± 0.0073
GGGCAACA | 0.0502 ± 0.002
ACCAGCGT | 0.0104 ± 0.016
CCCAATCG | -0.137 ± 0.0034
AGCGTACA | -0.121 ± 0.064
ATCATGGG | -0.396 ± 0.021
AGAAGTTA | -0.0507 ± 0.083
CCCCCGAG | -0.224 ± 0.038
